Structures can show the parent of a compound that is named as a salt. Some of these results come from one statement about several compounds together. At least one structure is not confirmed: it was looked up by name or label, or the drawing left a doubt.
These compounds were tested against KPC-2 (Klebsiella pneumoniae, UniProt Q9F663). Conditions: KPC-2, procedure of Example 102, Table IV (kinact/K).
KPC-2, sequence (Q9F663 25-293 limits assumed): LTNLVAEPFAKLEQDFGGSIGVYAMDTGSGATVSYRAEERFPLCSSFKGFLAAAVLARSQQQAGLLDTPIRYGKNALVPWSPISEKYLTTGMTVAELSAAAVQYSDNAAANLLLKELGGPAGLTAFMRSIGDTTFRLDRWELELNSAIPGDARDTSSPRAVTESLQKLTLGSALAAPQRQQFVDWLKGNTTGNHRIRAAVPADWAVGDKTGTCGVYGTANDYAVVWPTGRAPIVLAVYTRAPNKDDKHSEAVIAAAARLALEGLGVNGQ
Type: biochemical, K. pneumoniae
`O=C1N2C[C@@H](CC[C@H]2c2nnco2)N1OS(=O)(=O)O` [Compound 701, (2S,5R)-2-(1,3,4-oxadiazol-2-yl)-7-oxo-1,6-diazabicyclo[3.2.1]octan-6-yl hydrogen sulfate] showed a binding affinity of 100 to 999 mM⁻¹ s⁻¹.
Compound `NCc1nnc([C@@H]2CC[C@@H]3CN2C(=O)N3OS(=O)(=O)O)o1` [Compound 702, (2S,5R)-2-(5-(aminomethyl)-1,3,4-oxadiazol-2-yl)-7-oxo-1,6-diazabicyclo[3.2.1]octan-6-yl hydrogen sulfate] has a binding affinity of 100 to 999 mM⁻¹ s⁻¹.
Compound `NCCc1nnc([C@@H]2CC[C@@H]3CN2C(=O)N3OS(=O)(=O)O)o1` [Compound 703, (2S,5R)-2-(5-(2-aminoethyl)-1,3,4-oxadiazol-2-yl)-7-oxo-1,6-diazabicyclo[3.2.1]octan-6-yl hydrogen sulfate] has a binding affinity of 100 to 999 mM⁻¹ s⁻¹.
In the case of `N=C(N)NCc1nnc([C@@H]2CC[C@@H]3CN2C(=O)N3OS(=O)(=O)O)o1` [Compound 704, (2S,5R)-2-(5-(guanidinomethyl)-1,3,4-oxadiazol-2-yl)-7-oxo-1,6-diazabicyclo[3.2.1]octan-6-yl hydrogen sulfate], the binding affinity is reported as 1 to 99 mM⁻¹ s⁻¹.
`N=C(N)NCCc1nnc([C@@H]2CC[C@@H]3CN2C(=O)N3OS(=O)(=O)O)o1` [Compound 705, (2S,5R)-2-(5-(2-guanidinoethyl)-1,3,4-oxadiazol-2-yl)-7-oxo-1,6-diazabicyclo[3.2.1]octan-6-yl hydrogen sulfate] showed a binding affinity of 100 to 999 mM⁻¹ s⁻¹.
Compound `Nc1nnc([C@@H]2CC[C@@H]3CN2C(=O)N3OS(=O)(=O)O)o1` [Compound 707, (2S,5R)-2-(5-amino-1,3,4-oxadiazol-2-yl)-7-oxo-1,6-diazabicyclo[3.2.1]octan-6-yl hydrogen sulfate] has a binding affinity of 100 to 999 mM⁻¹ s⁻¹.
`O=C1N2C[C@@H](CC[C@H]2c2nnc(C3CNC3)o2)N1OS(=O)(=O)O` [Compound 708, (2S,5R)-2-(5-(azetidin-3-yl)-1,3,4-oxadiazol-2-yl)-7-oxo-1,6-diazabicyclo[3.2.1]octan-6-yl hydrogen sulfate] was tested, and the binding affinity was 1 to 99 mM⁻¹ s⁻¹.
`N=C(N)N1CC(c2nnc([C@@H]3CC[C@@H]4CN3C(=O)N4OS(=O)(=O)O)o2)C1` [Compound 709, (2S,5R)-2-(5-(1-carbamimidoylazetidin-3-yl)-1,3,4-oxadiazol-2-yl)-7-oxo-1,6-diazabicyclo[3.2.1]octan-6-yl hydrogen sulfate] gave a binding affinity of 100 to 999 mM⁻¹ s⁻¹.
In the case of `O=C1N2C[C@@H](CC[C@H]2c2nnc(C3CCNC3)o2)N1OS(=O)(=O)O` (stereo partly drawn) [Compound 710, (2S,5R)-7-oxo-2-(5-(pyrrolidin-3-yl)-1,3,4-oxadiazol-2-yl)-1,6-diazabicyclo[3.2.1]octan-6-yl hydrogen sulfate], the binding affinity is reported as 1 to 99 mM⁻¹ s⁻¹.
In the case of `O=C1N2C[C@@H](CC[C@H]2c2nnc(C3CCNCC3)o2)N1OS(=O)(=O)O` [Compound 711, (2S,5R)-7-oxo-2-(5-(piperidin-4-yl)-1,3,4-oxadiazol-2-yl)-1,6-diazabicyclo[3.2.1]octan-6-yl hydrogen sulfate], the binding affinity is reported as 100 to 999 mM⁻¹ s⁻¹.
With `N=C(N)N1CCC(c2nnc([C@@H]3CC[C@@H]4CN3C(=O)N4OS(=O)(=O)O)o2)CC1` [Compound 712, (2S,5R)-2-(5-(1-carbamimidoylpiperidin-4-yl)-1,3,4-oxadiazol-2-yl)-7-oxo-1,6-diazabicyclo[3.2.1]octan-6-yl hydrogen sulfate] the binding affinity was 100 to 999 mM⁻¹ s⁻¹.
In the case of `O=C1N2C[C@@H](CC[C@H]2c2nnc(N3CCNCC3)o2)N1OS(=O)(=O)O` [Compound 713, (2S,5R)-7-oxo-2-(5-(piperazin-1-yl)-1,3,4-oxadiazol-2-yl)-1,6-diazabicyclo[3.2.1]octan-6-yl hydrogen sulfate], the binding affinity is reported as 100 to 999 mM⁻¹ s⁻¹.
Work on `N=C(N)NCCCc1nnc([C@@H]2CC[C@@H]3CN2C(=O)N3OS(=O)(=O)O)o1` [Compound 714, (2S,5R)-2-(5-(3-guanidinopropyl)-1,3,4-oxadiazol-2-yl)-7-oxo-1,6-diazabicyclo[3.2.1]octan-6-yl hydrogen sulfate] yielded a binding affinity of 100 to 999 mM⁻¹ s⁻¹.
For `NCC(O)c1nnc([C@@H]2CC[C@@H]3CN2C(=O)N3OS(=O)(=O)O)o1` (stereo partly drawn) [Compound 715, (2S,5R)-2-(5-(2-amino-1-hydroxyethyl)-1,3,4-oxadiazol-2-yl)-7-oxo-1,6-diazabicyclo[3.2.1]octan-6-yl hydrogen sulfate], the binding affinity was 1 to 99 mM⁻¹ s⁻¹.
In the case of `NCCNCCc1nnc([C@@H]2CC[C@@H]3CN2C(=O)N3OS(=O)(=O)O)o1` [Compound 716, (2S,5R)-2-(5-(2-((2-aminoethyl)amino)ethyl)-1,3,4-oxadiazol-2-yl)-7-oxo-1,6-diazabicyclo[3.2.1]octan-6-yl hydrogen sulfate], the binding affinity is reported as 1 to 99 mM⁻¹ s⁻¹.
`NCC(N)c1nnc([C@@H]2CC[C@@H]3CN2C(=O)N3OS(=O)(=O)O)o1` (stereo partly drawn) [Compound 717, (2S,5R)-2-(5-(1,2-diaminoethyl)-1,3,4-oxadiazol-2-yl)-7-oxo-1,6-diazabicyclo[3.2.1]octan-6-yl hydrogen sulfate] gave a binding affinity of 1 to 99 mM⁻¹ s⁻¹.
`NCCc1nnc([C@@H]2CC[C@@H]3CN2C(=O)N3OS(=O)(=O)O)s1` [Compound 718, (2S,5R)-2-(5-(2-aminoethyl)-1,3,4-thiadiazol-2-yl)-7-oxo-1,6-diazabicyclo[3.2.1]octan-6-yl hydrogen sulfate] showed a binding affinity of 1 to 99 mM⁻¹ s⁻¹.
For `O=C1N2C[C@@H](CC[C@H]2c2nnc(C3CCNCC3)s2)N1OS(=O)(=O)O` [Compound 719, (2S,5R)-7-oxo-2-(5-(piperidin-4-yl)-1,3,4-thiadiazol-2-yl)-1,6-diazabicyclo[3.2.1]octan-6-yl hydrogen sulfate], the binding affinity was 1 to 99 mM⁻¹ s⁻¹.
Compound `NCCCc1nnc([C@@H]2CC[C@@H]3CN2C(=O)N3OS(=O)(=O)O)o1` [Compound 720, (2S,5R)-2-(5-(3-aminopropyl)-1,3,4-oxadiazol-2-yl)-7-oxo-1,6-diazabicyclo[3.2.1]octan-6-yl hydrogen sulfate] has a binding affinity of 100 to 999 mM⁻¹ s⁻¹.
In the case of `N=C(N)NCc1nnc([C@@H]2CC[C@@H]3CN2C(=O)N3OS(=O)(=O)O)s1` [Compound 721, (2S,5R)-2-(5-(guanidinomethyl)-1,3,4-thiadiazol-2-yl)-7-oxo-1,6-diazabicyclo[3.2.1]octan-6-yl hydrogen sulfate], the binding affinity is reported as 1 to 99 mM⁻¹ s⁻¹.
For `CNCCc1nnc([C@@H]2CC[C@@H]3CN2C(=O)N3OS(=O)(=O)O)o1` [Compound 722, (2S,5R)-2-(5-(2-(methylamino)ethyl)-1,3,4-oxadiazol-2-yl)-7-oxo-1,6-diazabicyclo[3.2.1]octan-6-yl hydrogen sulfate], the binding affinity was 1 to 99 mM⁻¹ s⁻¹.
`N=C(N)NCC1(c2nnc([C@@H]3CC[C@@H]4CN3C(=O)N4OS(=O)(=O)O)o2)CC1` [Compound 723, (2S,5R)-2-(5-(1-(guanidinomethyl)cyclopropyl)-1,3,4-oxadiazol-2-yl)-7-oxo-1,6-diazabicyclo[3.2.1]octan-6-yl hydrogen sulfate] was tested, and the binding affinity was 1 to 99 mM⁻¹ s⁻¹.
`NC1(Cc2nnc([C@@H]3CC[C@@H]4CN3C(=O)N4OS(=O)(=O)O)o2)CC1` [Compound 724, (2S,5R)-2-(5-((1-aminocyclopropyl)methyl)-1,3,4-oxadiazol-2-yl)-7-oxo-1,6-diazabicyclo[3.2.1]octan-6-yl hydrogen sulfate] showed a binding affinity of 1 to 99 mM⁻¹ s⁻¹.
In the case of `O=C1N2C[C@@H](CC[C@H]2c2nnc(CC3CNC3)o2)N1OS(=O)(=O)O` [Compound 725, (2S,5R)-2-(5-(azetidin-3-ylmethyl)-1,3,4-oxadiazol-2-yl)-7-oxo-1,6-diazabicyclo[3.2.1]octan-6-yl hydrogen sulfate], the binding affinity is reported as 1 to 99 mM⁻¹ s⁻¹.
`O=C1N2C[C@@H](CC[C@H]2c2nnc(CNC3CNC3)o2)N1OS(=O)(=O)O` [Compound 726, (2S,5R)-2-(5-((azetidin-3-ylamino)methyl)-1,3,4-oxadiazol-2-yl)-7-oxo-1,6-diazabicyclo[3.2.1]octan-6-yl hydrogen sulfate] showed a binding affinity of 1 to 99 mM⁻¹ s⁻¹.
For `N[C@H]1C[C@H](c2nnc([C@@H]3CC[C@@H]4CN3C(=O)N4OS(=O)(=O)O)o2)C1` [Compound 727, (2S,5R)-2-(5-((1r,3S)-3-aminocyclobutyl)-1,3,4-oxadiazol-2-yl)-7-oxo-1,6-diazabicyclo[3.2.1]octan-6-yl hydrogen sulfate], the binding affinity was 1 to 99 mM⁻¹ s⁻¹.
`N[C@H]1C[C@@H](Cc2nnc([C@@H]3CC[C@@H]4CN3C(=O)N4OS(=O)(=O)O)o2)C1` [Compound 728, (2S,5R)-2-(5-(((1s,3R)-3-aminocyclobutyl)methyl)-1,3,4-oxadiazol-2-yl)-7-oxo-1,6-diazabicyclo[3.2.1]octan-6-yl hydrogen sulfate] gave a binding affinity of 1 to 99 mM⁻¹ s⁻¹.
Compound `N[C@@H]1CC[C@H](c2nnc([C@@H]3CC[C@@H]4CN3C(=O)N4OS(=O)(=O)O)o2)C1` [Compound 729, (2S,5R)-2-(5-((1S,3R)-3-aminocyclopentyl)-1,3,4-oxadiazol-2-yl)-7-oxo-1,6-diazabicyclo[3.2.1]octan-6-yl hydrogen sulfate] has a binding affinity of 1 to 99 mM⁻¹ s⁻¹.
For `N=C(N)NCC(O)Cc1nnc([C@@H]2CC[C@@H]3CN2C(=O)N3OS(=O)(=O)O)o1` (stereo partly drawn) [Compound 730, (2S,5R)-2-(5-(3-guanidino-2-hydroxypropyl)-1,3,4-oxadiazol-2-yl)-7-oxo-1,6-diazabicyclo[3.2.1]octan-6-yl hydrogen sulfate], the binding affinity was 100 to 999 mM⁻¹ s⁻¹.
`N=C(N)NC[C@@H](O)c1nnc([C@@H]2CC[C@@H]3CN2C(=O)N3OS(=O)(=O)O)o1` [Compound 731, (2S,5R)-2-(5-((R)-2-guanidino-1-hydroxyethyl)-1,3,4-oxadiazol-2-yl)-7-oxo-1,6-diazabicyclo[3.2.1]octan-6-yl hydrogen sulfate] gave a binding affinity of 1 to 99 mM⁻¹ s⁻¹.
With `N=C(N)NC[C@H](O)c1nnc([C@@H]2CC[C@@H]3CN2C(=O)N3OS(=O)(=O)O)o1` [Compound 732, (2S,5R)-2-(5-((S)-2-guanidino-1-hydroxyethyl)-1,3,4-oxadiazol-2-yl)-7-oxo-1,6-diazabicyclo[3.2.1]octan-6-yl hydrogen sulfate] the binding affinity was 1 to 99 mM⁻¹ s⁻¹.
